# Laboratory results: ChEMBL document CHEMBL4888484, “Replenishing the malaria drug discovery pipeline: Screening and hit evaluation of the MMV Hit Generation Library 1 (HGL1) against asexual blood stage Plasmodium falciparum ,using a nano luciferase reporter read-out” (2022)
# Among all 150,000 compounds or so, about 540 (0.36%) showed an effect of 50% or more. The list shows a part of the results.
# System: Plasmodium falciparum
# Assay: Primary screen in NF54 nanoGlo assay, in single point, at 2uM, 72h; a lower Z score goes with more inhibition
# Assay type: functional, Erythrocyte
# Details: timepoint 72 hour
SMILES,% Inhibition [%],Z score
Cc1cc(CN2CCCN(S(=O)(=O)c3ccc(Cl)s3)CC2)no1,-6,0.86
Cc1ccc(-c2ccc(=O)n(CCNC(=O)COc3ccc4c(c3)OCO4)n2)cc1,3,-0.43
CC1CC1C(=O)Nc1cc(C2CCC2)nn1C (centres undefined),28,-3.15
FC1(F)COCCN(Cc2ncc[nH]2)C1,-6,1.28
COCCN1CCC([C@H]2c3nc[nH]c3CCN2CC(C)C)CC1,-1,0.14
c1coc(-c2nc(C3CN4CCCC4CO3)no2)c1 (centres undefined),-12,1.5
CCC(CC(C)CO)Nc1ccc(C#N)cc1F (centres undefined),-15,2.14
Oc1cc(C(F)(F)C(F)(F)C(F)(F)C(F)F)n[nH]1,-37,4.32
CCc1csc(CNS(=O)(=O)c2ccc(C)s2)n1,6,-0.86
O=C(c1[nH]nc2c1CCCC2)N1CCCC1,-8,1.35
Cn1cc(CC(=O)NS(=O)(=O)Cc2ccc(Cl)c(F)c2)cn1,0,0.06
Cc1ccccc1NC(=O)CN1CCC2(CC1)N=C(c1cccc(Cl)c1)C(=O)N2,-3,0.32
O=C(Cc1ccccc1Br)N[C@H]1CCc2n[nH]c(=O)cc2C1,-13,2.2
c1ccc(N2CCN(Cc3ccc4c(c3)CNCCO4)CC2)nc1,11,-1.57
COCCS(=O)(=O)NC1CCCC1Cc1ccccc1 (centres undefined),-9,1.14
CC1(C)NC(=O)N(Cc2nnsc2Cl)C1=O,-15,1.65
O=C(COc1cccc(-n2ccnn2)c1)NC1CC1,-16,1.38
CC(C)(C)C(=O)NCCC(=O)N1CCN(Cc2csc(-c3ccco3)n2)CC1,11,-1.5
Nc1ccccc1-c1nc(C2CCCCCC2)no1,-18,1.83
Cc1c(-c2cnn(C)c2)cc(C#N)n1C(F)F,-7,1.32
CCc1ccc(CN(C)c2cc(C3CC(N)C3)nc(N(C)C)n2)nc1 (centres undefined),8,-1.04

SMILES,% Inhibition [%],Z score
CCn1ncc(-c2nc3c([nH]2)c(C)nn3Cc2cccc(Cl)c2)c1C,2,-0.42
CCc1cccc(NC(=O)CN(CC)[C@@H](C)CS(=O)(=O)CC)c1,4,-0.52
Cc1conc1NS(=O)(=O)Cc1cc(Cl)ccc1F,-9,0.9
COc1ccc(CC(=O)Nc2n[nH]c(CCCc3c[nH]c4ccccc34)n2)cc1,-21,3.11
Cc1ccc(CN(C)C(=O)[C@H]2CC(=O)N(C3CC3)C2)o1,-5,0.69
CN(C)C(=O)NCCNS(=O)(=O)C[C@H]1CC(C)(C)CO1,-3,0.41
Cc1cccc(N2CCN(C(=O)Nc3ccc(N4CCCC4)c(F)c3)[C@@H](C)C2)n1,-9,1.08
CCN(CC)C(=O)NC1CCN(C(=O)OC)CC1,-6,0.82
Cc1nonc1CN(C)Cc1nc(-c2ccoc2)oc1C,-7,1.41
COc1ccccc1CC(=O)N1CC(Nc2ccncn2)C1,8,-0.92
CC1CC(C)CN(C(=O)CN(CCC#N)Cc2ccccn2)C1 (centres undefined),-2,0.19
CCOc1ccccc1N1C(=O)N2CC(c3ccccc3OC)c3c([nH]c4ccccc34)[C@@]2(C)C1=O (some centres undefined),3,-0.33
Cc1cc(C)c(C#N)c(N2CCCn3cncc3C2)n1,-8,1.44
O=C(c1c[nH]c(=O)c(Cl)c1)N1CCc2[nH]nc(-c3ccc4c(c3)OCO4)c2C1,-11,1.88
Cc1c(NC(=O)c2ccccc2NS(=O)(=O)c2ccc(Cl)cc2)c(=O)n(-c2ccccc2)n1C,15,-1.74
O=C(c1ccc(O)c(Cl)c1)N1CCC(O)(CN2CCCC2)CC1,-5,0.92
CC(C)c1cc(C(=O)N[C@H]2CCCN(C3CCCCC3)C2=O)no1,3,-0.39
Cc1ccc(S(=O)(=O)c2c(C(=O)N3CCCCC3)cnc3ccc(F)cc23)c(C)c1,-23,2.23
CCOc1ccc(NS(=O)(=O)c2cc(C(=O)Nc3ccc(-n4cncn4)nc3)ccc2Cl)cc1,-36,5.04
Cc1noc([C@H]2CCCN(C(=O)c3noc4c3CCCC4)C2)n1,-2,0.38
CCOC(=O)c1csc([C@@H]2CCCN2Cc2nc(C)no2)n1,-6,0.69
